According to the supplement of paper PMC12217912:
The other results are listed elsewhere or left out. Sequences were assembled here from the parent chain. Values near 0.05 are background.

B1: TEV protease; numbered along this chain (parent)
chain: MGESLFKGPRDYNPISSSICHLTNESDGHTTSLYGIGFGPFIITNKHLFRRNNGTLVVQSLHGVFKVKDTTTLQQHLVDGRDMIIIRMPKDFPPFPQKLKFREPQREERICLVTTNFQTKSMSSMVSDTSCTFPSGDGIFWKHWIQTKDGQCGSPLVSTRDGFIVGIHSASNFTNTNNYFTSVPKNFMELLTNQEAQQWVSGWRLNADSVLWGGHKVFMVKPEEPFQPVKEATQL

Variants of: B1
Experiment: raw area under fraction-flipped curve 0-4 h after induction (AUC4h, not background-subtracted), DNA-recorder readout of cleavage of the substrate (dimensionless); higher = more cleavage of the substrate by the protease variant
Conditions: temperature: 34 °C; time window: 0-4 h after rhamnose induction
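Further: Bxb1 expression induced with 0.2% (w/v) L-rhamnose at OD600 near 0.5, cultures sampled hourly, flipped fraction per protease–substrate barcode pair counted by paired-end Illumina sequencing.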

Variant	area with substrate ENLYFDS	area with substrate ENLYFES	area with substrate ENLYFGS	area with substrate ENLYFHS	area with substrate ENLYFIS	area with substrate ENLYFKS	area with substrate ENLYFLS	area with substrate ENLYFMS	area with substrate ENLYFTS	area with substrate ENLYFVS	area with substrate ENLYFCS	area with substrate ENLYFFS	area with substrate ENLYFPS	area with substrate ENLYFRS	area with substrate ENLYFSS	area with substrate ENLYFWS	area with substrate ENLYFYS	area with substrate ENLYFNS
K90N	0.0571	0.0837	0.0674	0.0834	0.0596	0.0719	0.0827	0.0581	0.0633	0.0667	–	–	–	–	–	–	–	–
V210R	–	0.0501	–	–	0.0583	–	–	–	0.067	–	0.0668	0.0588	0.0593	0.0561	0.0636	0.0613	–	–
L5V	0.0532	0.0524	–	–	0.0567	–	–	–	–	0.0625	–	0.0753	–	0.0508	0.063	–	0.0647	–
L5N	0.074	0.0844	0.0424	–	0.0569	–	–	0.0766	–	–	–	0.05	0.0576	0.0844	–	–	0.0588	–
K66N	0.0654	0.062	–	0.0704	0.0626	–	–	–	–	–	–	–	0.0553	–	–	0.0411	0.0609	–
D161M	0.0526	0.0524	–	–	0.0524	–	–	0.0582	0.0592	0.0588	–	0.0636	0.0631	–	–	0.0559	–	0.0601
Y34A	0.0544	–	–	–	0.054	–	–	0.0689	–	0.0549	–	0.0502	0.0564	–	–	0.0621	–	–
N186D	–	0.0596	–	0.0611	0.0527	0.0717	0.0709	0.0757	–	–	0.0409	0.0618	0.0924	–	–	0.0505	0.0661	–
N186G	0.0838	–	–	0.0651	–	0.0676	–	0.0749	–	0.0462	–	–	–	–	–	–	–	–
Q234A	0.0378	–	–	–	0.0641	–	–	0.0801	0.0678	0.0314	0.0583	0.0669	0.0659	–	–	–	0.0633	–
V157Q	0.0559	0.0555	–	–	0.0411	–	–	0.0663	0.0502	0.0448	0.0528	0.0301	0.0706	0.0608	0.0643	0.0502	–	0.0653
G80S	0.0589	0.0579	0.0718	–	0.045	0.0618	–	0.0432	–	–	–	0.0867	0.0633	0.0579	–	0.0441	–	–
I110L	0.05	0.0542	0.0578	0.0778	0.0546	0.061	0.0601	0.0524	0.0683	–	–	0.0718	0.0654	0.0565	–	–	0.0444	0.0638
V67N	0.0364	–	–	0.0796	0.0208	–	0.0585	0.0485	0.0508	–	–	0.0707	–	0.0625	0.0578	0.0493	0.0595	–
V67K	0.0498	0.0646	–	0.0468	0.0467	0.0634	0.0855	0.0615	0.0849	0.0714	–	–	0.0608	0.0357	–	0.0596	–	0.0293
G153K	0.0453	0.0505	–	–	0.0577	0.0544	0.0465	0.0667	0.0499	–	–	–	–	0.0344	–	0.0647	0.04	–
I19A	0.0558	0.0584	–	–	0.0517	0.0554	–	0.0629	0.0535	0.0571	–	0.0693	0.0566	–	–	–	–	0.0526
W212C	–	–	–	0.073	0.0582	–	–	–	–	–	0.0585	0.0743	0.0636	0.0745	–	–	0.0547	–

Variant	area with substrate ENLYFDS	area with substrate ENLYFES	area with substrate ENLYFGS	area with substrate ENLYFHS	area with substrate ENLYFIS	area with substrate ENLYFKS	area with substrate ENLYFLS	area with substrate ENLYFMS	area with substrate ENLYFTS	area with substrate ENLYFVS	area with substrate ENLYFCS	area with substrate ENLYFFS	area with substrate ENLYFPS	area with substrate ENLYFRS	area with substrate ENLYFSS	area with substrate ENLYFWS	area with substrate ENLYFYS	area with substrate ENLYFNS
W212R	0.0611	0.0576	–	–	0.0575	–	0.0356	0.0601	0.0448	–	0.0456	–	0.0759	–	0.0551	0.0543	0.0666	0.0672
R51P	0.0548	0.0663	–	0.055	0.0511	–	0.0673	0.0608	0.0592	–	–	0.0696	0.0589	0.0644	–	–	–	0.0657
N175H	–	–	–	–	0.0612	–	–	–	–	–	0.0605	–	–	0.0617	–	–	–	–
P228K	–	0.0731	–	–	0.0557	0.0509	0.0632	0.0815	0.0671	–	0.0676	–	–	–	0.0506	0.0515	–	–
V113R	0.0116	0.0528	0.0734	–	0.0499	0.0657	0.0606	0.0565	0.0712	–	–	0.0735	0.0413	–	–	0.0569	–	0.0626
K221W	0.0584	–	–	0.0665	0.0686	–	0.0799	0.0541	0.0438	–	0.0578	–	0.0682	–	0.0616	–	0.0648	0.0569
K221G	0.0372	0.0691	–	0.0299	0.0531	0.0663	0.0603	0.0608	0.0598	–	–	0.0547	0.0547	–	0.0608	–	–	–
Q75V	0.0562	0.0594	–	–	0.0494	–	–	0.0624	0.071	–	–	–	0.0483	–	–	0.0744	–	–
S182I	–	0.0457	–	0.0559	0.0469	–	–	0.0666	0.0515	–	0.0565	–	0.0539	0.0844	0.0477	0.0373	0.041	–
S182P	0.0792	0.0848	–	–	0.0478	0.0808	–	0.0672	0.0596	0.064	0.0626	0.0708	–	0.0698	–	0.0562	–	0.0723
Q198H	–	–	–	0.0622	0.0521	0.0647	–	0.0762	0.0484	–	0.0727	–	0.0538	0.0634	–	–	0.0518	0.0591
G214P	0.0435	0.0401	0.0485	0.0704	0.0532	–	–	0.0457	–	0.0265	0.0584	0.0542	–	–	–	–	–	0.0616
G214R	0.0666	–	0.0474	–	0.059	0.0817	–	0.0641	0.0467	0.0737	–	0.0714	0.0706	0.0703	–	–	–	–
F173C	0.0505	–	–	–	0.0528	–	0.0567	0.0697	0.053	–	0.0603	–	0.0599	0.0534	–	–	0.0667	0.0519
F173N	–	–	0.0521	0.0556	–	–	–	0.0672	–	0.0539	0.0814	0.0364	–	–	0.0514	–	–	0.0677
L211Y	0.068	0.066	–	0.0534	0.0557	–	0.065	0.0707	0.0662	–	0.0379	0.066	0.0547	0.0575	–	–	–	0.0747
L211R	–	–	–	0.0438	–	–	–	0.0602	0.0498	0.043	0.075	–	0.0351	0.0746	–	–	–	0.0747
